For 15 molecules, percent labeling results are on record in PubChem BioAssay AID2202238 (Ras Initiative Chemistry Research Team, Frederick National …, 2025).

The list shows a part of the results. Shown are side measurements of this screen, not its main read-out; they come without a call.

This assay addresses GTPase KRas (Homo sapiens) (UniProt P01116). In words: Covalent labelling of cysteine mutants by fragments, read by mass spectrometry (AID 2202238). More on the design: protein at 5 µM with 500 µM competing thiol for 1.5 h. As to conditions: KRAS G12D cysteine mutants, disulfide tethering, MALDI-TOF labeling, stronger effect = higher value, fragment at 500 µM.
UniProt P01116, sequence (P01116 whole entry, looked up, the tested form may be a part): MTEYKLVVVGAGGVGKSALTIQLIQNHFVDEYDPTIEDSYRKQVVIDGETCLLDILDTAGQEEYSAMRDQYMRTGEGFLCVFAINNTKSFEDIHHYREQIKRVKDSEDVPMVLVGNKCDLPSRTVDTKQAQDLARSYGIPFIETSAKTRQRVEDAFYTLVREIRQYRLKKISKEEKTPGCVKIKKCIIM
The mark [1] stands for this setting: measured here: G75C mutant labeling.
The mark [2] stands for this setting: measured here: H94C mutant labeling.
Setting [3] is: measured here: I36C mutant labeling.
Setting [4] is: measured here: L120C mutant labeling.
Where [5] appears, read: measured here: M67C mutant labeling.
Where [6] appears, read: measured here: M72C mutant labeling.
Setting [7] is: measured here: N86C mutant labeling.
Where [8] appears, read: measured here: P121C mutant labeling.
Where [9] appears, read: measured here: S122C mutant labeling.
[10] abbreviates: measured here: S136C mutant labeling.
Setting [11] is: measured here: G60C mutant labeling.
[12] abbreviates: measured here: N26C mutant labeling.

`O=C(CCS)N1CCC(n2cc3ccccc3n2)C1` (stereo not given): the percent labeling runs as follows: under setting [1], 16%; under setting [2], 30.4%; under setting [3], 37.3%; under setting [4], 35.9%; under setting [5], 50.9%; under setting [6], 34.1%. In addition, the percent labeling is, setting by setting: under setting [7], 28.3%; under setting [8], 38.4%; under setting [9], 28.3%; under setting [10], 56.5%.

`O=C(CCS)N1CC(O)CC1c1cc(F)ccc1F` (stereo not given): the percent labeling runs as follows: under setting [1], 17.3%; under setting [2], 39.4%; under setting [3], 39.3%; under setting [4], 34.3%; under setting [5], 42.3%; under setting [6], 36.9%. Besides, the percent labeling came to 46.2% under setting [7], 38.4% under setting [8], 38.8% under setting [9] and 61.5% under setting [10].

Take `CC1(NC(=O)CCS)CCOC12CC2(F)F` (stereo not given): the percent labeling is 13.4% under setting [1]; 26% under setting [2]; 23% under setting [3]; 19.2% under setting [4]; 23.8% under setting [5]; 18.7% under setting [6]. The percent labeling came out at 24% under setting [7], 36% under setting [8], 32.6% under setting [9] and 39.7% under setting [10].

`O=C(NCCS)C(c1ccc(Br)cc1)N1CCCC1` (stereo not given): the percent labeling is, setting by setting: under setting [11], 51.1%; under setting [1], 23%; under setting [2], 29.5%; under setting [3], 21.9%; under setting [4], 66.2%; under setting [5], 28.8%. Also, the percent labeling is, setting by setting: under setting [6], 22.2%; under setting [12], 39.1%; under setting [7], 13.4%; under setting [8], 18.2%; under setting [9], 11.8%; under setting [10], 27.7%.

With `Cc1ccc(CN(C)c2ccc(C(=O)NCCS)cc2)cc1`, the percent labeling reads like this: under setting [11], 25.6%; under setting [1], 12.5%; under setting [2], 15.3%; under setting [3], 9%; under setting [4], 12%; under setting [5], 10.5%. The percent labeling reads like this: under setting [6], 42.2%; under setting [12], 26.6%; under setting [7], 13.7%; under setting [8], 10.7%; under setting [9], 8.3%; under setting [10], 14%.

As for `Cc1nc(C)n(CC2CCCN(C(=O)CCS)C2)n1` (stereo not given), the percent labeling reads like this: under setting [1], 9.4%; under setting [2], 33.8%; under setting [3], 34.9%; under setting [4], 31.1%; under setting [5], 38.8%; under setting [6], 12.8%. The percent labeling was 21.7% under setting [7], 29.8% under setting [8], 31.2% under setting [9] and 57.8% under setting [10].

For `O=C(CCS)Nc1ccc(Cl)nc1OCc1ccccc1`, the percent labeling runs as follows: under setting [1], 13.1%; under setting [2], 15.3%; under setting [3], 26.9%; under setting [4], 7.5%; under setting [5], 25.7%; under setting [6], 57.4%. Further, the percent labeling runs as follows: under setting [7], 22%; under setting [8], 12.6%; under setting [9], 7.6%; under setting [10], 19.9%.

For `O=C(NCCS)c1ccc(Cl)c2occc12`, the percent labeling worked out at 50.7% under setting [11]; 10.9% under setting [1]; 12.4% under setting [2]; 13.5% under setting [3]; 9.9% under setting [4]; 7.6% under setting [5]. Further, the percent labeling is 28.7% under setting [6]; 24.7% under setting [12]; 4.6% under setting [7]; 36.3% under setting [8]; 8% under setting [9]; 19% under setting [10].

Consider `Cc1nn(C)c(N2CCOCC2)c1CNC(=O)CCS`, for which the percent labeling is, setting by setting: under setting [1], 8.8%; under setting [2], 29.8%; under setting [3], 39.7%; under setting [4], 27.5%; under setting [5], 43%; under setting [6], 13.1%. Moreover, the percent labeling is, setting by setting: under setting [7], 20%; under setting [8], 33.3%; under setting [9], 31.6%; under setting [10], 47.7%.

As to `O=C(CCS)NC1(c2nc(-c3ccsc3)no2)CCCCC1`, the percent labeling is 6.5% under setting [1]; 18.3% under setting [2]; 18% under setting [3]; 17.3% under setting [4]; 39.3% under setting [5]; 34.6% under setting [6]. Also, the percent labeling by setting is: under setting [7], 18%; under setting [8], 15.4%; under setting [9], 11.4%; under setting [10], 35.3%.

For `O=C(Cn1nccc1-c1ccccc1)NCCS`, the percent labeling was determined as 46.4% under setting [11]; 18.6% under setting [1]; 33.9% under setting [2]; 27.5% under setting [3]; 48.3% under setting [4]; 50.6% under setting [5]. For the same molecule, the percent labeling runs as follows: under setting [6], 35.3%; under setting [12], 37.2%; under setting [7], 26.9%; under setting [8], 35.9%; under setting [9], 32.8%; under setting [10], 55.2%.

For the molecule `Cc1cc(Oc2ccccc2C#N)ncc1NC(=O)CCS`, the percent labeling is, setting by setting: under setting [1], 14%; under setting [2], 25.1%; under setting [3], 32.1%; under setting [4], 22%; under setting [5], 37%; under setting [6], 35%. The percent labeling reads like this: under setting [7], 15.2%; under setting [8], 20.9%; under setting [9], 23.7%; under setting [10], 37.7%.

For `Cc1cc(C)nc(-n2cc(C(=O)NCCS)c(C)n2)n1`, the percent labeling under setting [11] was found to be 38.9%; the percent labeling under setting [1] is 14.2%; the percent labeling under setting [2] worked out at 30.5%; the percent labeling under setting [3] came to 30.2%; the percent labeling under setting [4] was 34.2%; the percent labeling under setting [5] came out at 29.2%. Also, the percent labeling amounted to 38.9% under setting [6]; 40.6% under setting [12]; 27.2% under setting [7]; 35.9% under setting [8]; 35.6% under setting [9]; 51.5% under setting [10].

Take `COC(=O)C1(C2(O)CCN(C(=O)CCS)CC2)CCC1`: the percent labeling is, setting by setting: under setting [1], 10.8%; under setting [2], 41.8%; under setting [3], 35.7%; under setting [4], 37.8%; under setting [5], 40%; under setting [6], 25.4%. The molecule further returned a percent labeling under setting [7] of 20.3%, a percent labeling under setting [8] of 35.5%, a percent labeling under setting [9] of 37.3% and a percent labeling under setting [10] of 66.8%.

`NC(=O)N1CCc2cc(NC(=O)CCS)ccc21`: the percent labeling under setting [1] amounted to 12.7%; the percent labeling under setting [2] is 23.3%; the percent labeling under setting [3] worked out at 27.3%; the percent labeling under setting [4] turned out to be 25.8%; the percent labeling under setting [5] stood at 24%; the percent labeling under setting [6] was 31.1%. Further, the percent labeling turned out to be 13.2% under setting [7], 25.1% under setting [8], 29.9% under setting [9] and 42.4% under setting [10].
